The source of these data is PubChem BioAssay AID488969 (Vanderbilt High Throughput Screening Facility, 2010).

In all, about 110,000 compounds were measured (“z-score”: median about -0.1, highest 2% from about 2 on). Some of the results follow.

The target of the assay is Metabotropic glutamate receptor 8 (Rattus norvegicus) (UniProt P70579). Description: mGluR8 Gi/Go-coupled signaling modulation – cell-based, rat, thallium flux, HTS, primary screen (AID 488969). The settings on record: HEK293 rat mGluR8, GIRK (G protein-gated inwardly rectifying potassium channel) thallium flux, FluoZin2; at 10 µM; stronger effect = higher value; submaximal glutamate (EC20) added with thallium.
Chain of UniProt P70579 (P70579 whole entry, looked up): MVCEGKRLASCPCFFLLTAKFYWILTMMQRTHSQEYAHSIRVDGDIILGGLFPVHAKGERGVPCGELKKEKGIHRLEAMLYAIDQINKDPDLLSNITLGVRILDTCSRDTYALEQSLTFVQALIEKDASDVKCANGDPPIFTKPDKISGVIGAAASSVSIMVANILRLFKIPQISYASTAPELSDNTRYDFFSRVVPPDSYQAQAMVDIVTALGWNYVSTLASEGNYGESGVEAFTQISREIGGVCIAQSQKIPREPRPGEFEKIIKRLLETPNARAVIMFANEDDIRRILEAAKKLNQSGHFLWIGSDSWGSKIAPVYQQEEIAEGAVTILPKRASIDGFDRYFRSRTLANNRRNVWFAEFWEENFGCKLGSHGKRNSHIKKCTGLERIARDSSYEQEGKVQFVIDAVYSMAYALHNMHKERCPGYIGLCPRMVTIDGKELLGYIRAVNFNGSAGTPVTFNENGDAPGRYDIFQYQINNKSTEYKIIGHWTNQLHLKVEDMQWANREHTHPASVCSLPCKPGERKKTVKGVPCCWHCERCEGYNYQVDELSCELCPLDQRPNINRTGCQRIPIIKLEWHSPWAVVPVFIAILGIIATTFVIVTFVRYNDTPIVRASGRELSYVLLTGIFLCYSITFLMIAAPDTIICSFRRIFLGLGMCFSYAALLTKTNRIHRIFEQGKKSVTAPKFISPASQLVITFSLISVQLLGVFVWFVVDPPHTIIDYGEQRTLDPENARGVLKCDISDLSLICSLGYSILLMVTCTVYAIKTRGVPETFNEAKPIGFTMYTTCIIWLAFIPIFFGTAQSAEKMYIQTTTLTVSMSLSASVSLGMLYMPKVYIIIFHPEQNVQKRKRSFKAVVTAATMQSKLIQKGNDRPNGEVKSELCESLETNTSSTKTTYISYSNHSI
As for `CCOC(=O)N1CCN(C(=O)C(=O)NNC(=O)COc2ccc(Cl)cc2)CC1`, the z-score was -0.134.

For `CCN(CC)S(=O)(=O)c1ccc(NC(=O)CN(c2cccc(F)c2)S(C)(=O)=O)cc1`, the z-score is -0.17.

As for `CCc1cc(C(=O)NNC(=S)NCc2ccccc2)cs1`, the z-score was 0.0336.

Regarding `C=C(Br)Cn1c(CC)nc2ccccc21`, the z-score is 0.07.

`COc1ccc(CC(=O)NCC2(c3ccc(OC)c(OC)c3)CCOCC2)cc1` came in with a z-score of -0.0286.

With `COC(=O)CC1NCCNC1=O` (stereo not drawn), the z-score was -0.306.

`CCS(=O)(=O)N1CCC(C(=O)NCCCOC)CC1` came in with a z-score of 0.0117.

Consider `O=C(CSc1nnnn1-c1ccccc1)NC(=O)Nc1ccc2c(c1)OCCO2`, for which the z-score was -0.362.

Turning to `Cc1ccc(C)c2nc(SCC(=O)N3CCCc4ccccc43)c(C#N)cc12`, the z-score was 0.0257.

Regarding `O=C1c2ccccc2C(=O)N1CCCc1c[nH]c2ccc(Cl)cc12`, the z-score was -0.545.

Turning to `O=C(c1cccc([N+](=O)[O-])c1)N1CCOCC1`, the z-score is -0.543.

`C/C=C(\C)CN1CCc2cc(OC)c(OC)cc2C1`: the z-score came to 0.351.

As to `CCc1nnc(NC(=O)CN2CCN(c3ccc(Cl)cc3)CC2)s1`, the z-score turned out to be 0.0568.

As for `NC(=O)c1ccc(-c2ccc(Br)cc2)o1`, the z-score was -0.204.

As to `CCOC(=O)CN1C(=O)C(O)=C(C(C)=O)C1c1ccc([N+](=O)[O-])cc1` (stereo not drawn), the z-score is -0.177.

On to `COc1ccc(-c2nn(-c3ccccc3)cc2/C=C(\C#N)S(=O)(=O)c2ccccc2)cc1OC`, for which the z-score is -0.0376.

For `O=C(c1ccncc1)c1ccc(N2CCN(C3CC(=O)N(Cc4ccccc4)C3=O)CC2)cc1` (stereo not drawn), the z-score is -1.23.

With `CCOC(=O)c1c(C)[nH]c(C(=O)COC(=O)c2[nH]c(C)c(C(C)=O)c2C)c1C`, the z-score is -0.211.

In turn, `CCCNC(=O)CN(CCc1ccccc1)S(C)(=O)=O` returned a z-score of -0.00828.

Compound `Cc1cccc(-c2nc3c(c(SCC(=O)N(C)C)n2)CCCC3)c1` came in with a z-score of -1.2.

`Cc1[nH]c2ccccc2c1SCC(=O)N1CCN(c2ccccc2)CC1`: the z-score is -0.0539.

`O=C(Nc1ccccc1)c1cccc(S(=O)(=O)Nc2ccccn2)c1` showed a z-score of -0.152.

Take `C/C(Cn1nnc([N+](=O)[O-])n1)=N\NC(=O)c1ccccc1Cl`: the z-score was -0.153.

In turn, `CCn1c(SCC(=O)N/N=C/C=C/c2ccco2)nnc1-c1ccc(OC)cc1` yielded a z-score of -0.397.

As to `C=CCn1c(C)cc(C(=O)CSc2n[nH]c(N)n2)c1C`, the z-score was -0.0429.

Turning to `CC(C)(C)c1ccc(-c2noc(CCC(=O)NCC3CCCO3)n2)cc1` (stereo not drawn), the z-score was 0.079.

As for `O=c1c2ccccc2nc(SCc2cc(F)ccc2F)n1C1CCCC1`, the z-score was determined as 1.66.

Compound `O=C(CSc1nc2[nH]ncc2c(=O)n1-c1ccccc1)N1CCCc2ccccc21` registered a z-score of -0.674.

Turning to `O=Cc1nc(-c2ccccc2Cl)n2ccccc12`, the z-score amounted to 0.0232.

In turn, `Cc1ccc(/C=C/C(=O)N2CCN(c3ccc(F)cc3)CC2)o1` yielded a z-score of 1.06.

Compound `COC(=O)c1ccc(NC(=S)Nc2ccccn2)cc1` displayed a z-score of 0.293.

With `CCOc1ccccc1CNC(=O)Cn1c(=O)oc2ccccc21`, the z-score was determined as 0.263.

In the case of `Cc1cc(C)c(-c2cc(C(=O)Nc3c(C)n(C)n(-c4ccccc4)c3=O)[nH]n2)c(O)c1`, the z-score was -0.34.

Take `O=C(Nc1nc(-c2ccccc2)cs1)c1ccc(Br)o1`: the z-score is 2.96.

As for `CCOC(=O)CNc1c(N2CCN(c3ccccn3)CC2)c(=O)c1=O`, the z-score is -0.493.

`CC(=O)n1cc(C(C[N+](=O)[O-])SCCN)c2ccccc21` (stereo not drawn) showed a z-score of -0.0387.

`O=C(NCCC1=CCCCC1)C1CCN(c2nc3ccccc3o2)CC1` registered a z-score of -0.213.

For the compound `Cc1cc(C)cc(-n2nnnc2SCC(=O)Nc2cccc(NC(=O)c3ccco3)c2)c1`, the z-score was -0.984.

`O=C(O)C1CC=CCC1C(=O)c1ccccc1` (stereo not drawn) registered a z-score of 0.235.

Consider `CCOc1ccc2nc(NC(=O)C3CCCN(S(=O)(=O)c4cccs4)C3)sc2c1` (stereo not drawn), for which the z-score turned out to be 0.284.

With `Clc1ncc(CN2CCN(Cc3ccccc3)CC2)s1`, the z-score is 0.0236.

Consider `CCOC(=O)c1cc(NC(=O)N(CC)CC)c(C)nc1C`, for which the z-score is -0.267.

`C=CCSc1nnc(Cc2c(C)[nH]c3ccccc23)o1`: the z-score is -1.81.

Consider `C=CCn1c(SCC(=O)N2CCc3ccccc3C2)nc2sc(C)cc2c1=O`, for which the z-score was -1.43.

Consider `COc1cc(Cl)c(S(=O)(=O)N2CCOCC2)cc1Cl`, for which the z-score is -0.191.

In turn, `COc1ccc(-c2noc(CSc3nnc(CCc4ccccc4)n3-c3ccccc3)n2)cc1OC` returned a z-score of -0.152.

`O=[n+]1c2c(n([O-])c3cc(F)ccc31)CCCC2` returned a z-score of -0.257.

Compound `O=[N+]([O-])c1c(NCCO)cc(N2CCN(Cc3ccc4c(c3)OCO4)CC2)c2nonc12` showed a z-score of -0.231.

In the case of `Cc1cccc(Nc2ncnc3ccccc23)c1`, the z-score was -0.262.

As for `COC(=O)c1cc(C(=O)OCC(=O)N2c3ccccc3NC(=O)C2(C)C)cc([N+](=O)[O-])c1`, the z-score is -0.914.

With `NS(=O)(=O)c1cccc2cccnc12`, the z-score is -0.0814.

In turn, `CCOC(=O)C1=C(CC)OC(N)=C(C#N)C1c1cccs1` (stereo not drawn) showed a z-score of -0.237.

For the compound `O=c1[nH]c(/C(Cl)=C/c2cccc(C(F)(F)F)c2)nc2cc(Cl)ccc12`, the z-score was -0.0389.

In turn, `Cc1nc2nc(COc3ccccc3)[nH]n2c(=O)c1C` came in with a z-score of -1.07.

Consider `Cc1ccc(OCc2nnc(NC(=O)c3ccco3)s2)c(C)c1`, for which the z-score was -0.238.

`COc1ccc(CN2C(=O)NC3(CCCCC3)C2=O)cc1F` displayed a z-score of 0.259.

`COc1ccc(CCCC(=O)NC(C)c2ccccc2)cc1` (stereo not drawn): the z-score worked out at 0.483.

Consider `COc1ccc(Nc2cc(C(=O)NCCCN3CCOCC3)c3ccccc3n2)cc1OC`, for which the z-score is 0.172.

The compound `CCN(C1CCCCC1)S(=O)(=O)c1cn(C)c(=O)n(C)c1=O` returned a z-score of -0.233.

Compound `COc1ccccc1NC(=O)C1=C(C)Nc2nnnn2C1c1cc(Br)ccc1OC` (stereo not drawn) returned a z-score of -0.0888.

Compound `CCN1CCN(c2nc3c(c(=O)n(C)c(=O)n3C)n2CCSc2nccc(C)n2)CC1` registered a z-score of 0.248.

Regarding `Cc1cc(/C=C2\SC(=S)N(Cc3ccco3)C2=O)c(C)n1-c1ccccc1`, the z-score is 0.221.

For the compound `O=C(Nc1cc(-c2nn(CC(=O)N3CCCCC3)c(=O)c3ccccc23)ccc1N1CCOCC1)c1ccc(Cl)cc1`, the z-score is -0.701.

For the compound `O=C(N/N=C\c1cccc(Cl)c1)c1n[nH]c2c1CCCC2`, the z-score is -0.98.

Turning to `C=CCn1c(Cc2cccs2)nnc1SCC(=O)NCc1ccco1`, the z-score came to 0.148.

Regarding `CCCCn1c(C)cc2cc(O)ccc21`, the z-score turned out to be 1.16.

`COc1ccc2c(c1OC)CN(C)CCc1cc3c(cc1C(O)C2)OCO3` (stereo not drawn) displayed a z-score of -0.367.

Take `COc1cccc(C2NC(C)(C(=O)O)C3C(=O)N(C(C)C)C(=O)C23)c1O` (stereo not drawn): the z-score worked out at 0.792.

As to `O=C(Nc1cccc(S(=O)(=O)N2CCOCC2)c1)c1cc2c(s1)CCC2`, the z-score is -1.2.

As to `O=c1nc(N2CCCCC2)nc2n1CCO2`, the z-score is -0.398.

Compound `Cc1cccnc1Nc1nc(-c2ccccn2)cs1` registered a z-score of 1.77.

With `CS(=O)(=O)Nc1ccc(Cc2ccc(NS(C)(=O)=O)cc2)cc1`, the z-score was -0.263.

For `COc1cc(COc2ccc3c(C)c(Cc4ccccc4)c(=O)oc3c2)cc(OC)c1OC`, the z-score was -0.101.

`CCN1CCn2c1nc(N1CCCCC1)nc2=O`: the z-score came out at 0.0609.

`Cc1ccc(C(=O)NCCSc2snnc2C)cc1` showed a z-score of 0.171.

For the compound `CN(c1cccc(NC(=O)Cc2ccccc2)c1)S(C)(=O)=O`, the z-score was -0.0815.

On to `CCc1nc2oc3ccccc3c(=O)c2c(=O)n1CCOC`, for which the z-score was -0.0712.

Turning to `OCc1cn(-c2ccccc2)nc1-c1ccc2c(c1)OCCO2`, the z-score is -0.478.

For `Cc1ccc(C)c(NC(=S)NNC(=O)c2sccc2C)c1`, the z-score was found to be 1.53.

In turn, `CCCn1nc(C(=O)Oc2ccc3c(C)cc(=O)oc3c2)c2ccccc2c1=O` showed a z-score of -0.836.

`Cc1cccc(-c2nc(C#N)c(NC3CCCCC3)o2)c1` registered a z-score of 0.339.

In the case of `CSc1ccccc1NC(=O)Nc1cccc(Cl)c1`, the z-score amounted to 0.076.

`COc1ccc(O)c(/C=N/c2sc(C)c(C)c2C#N)c1` had a z-score of 0.454.

`S=C(N/N=C1\C2CN3CCN(C2)CC1(c1ccccc1)C3)Nc1ccccc1` registered a z-score of 0.425.

Turning to `Cc1ccc2cc(CN(CC3CCCO3)C(=S)Nc3ccccc3)c(=O)[nH]c2c1C` (stereo not drawn), the z-score was -0.0337.

`COC(=O)c1c(C)oc2ccc(N(C(=O)Oc3ccccc3)S(=O)(=O)c3ccc(Cl)c([N+](=O)[O-])c3)cc12` displayed a z-score of 0.134.

`COc1ccc(-n2c(=O)cc(N3CCN(Cc4ccccc4)CC3)[nH]c2=O)cc1` gave a z-score of 0.394.

`COC(=O)c1cc(-c2ccccc2)sc1NC(=O)CN1C(=O)c2ccccc2C1=O`: the z-score is -0.134.

On to `CN1CCN(CC(=O)Nc2ccccc2[N+](=O)[O-])CC1`, for which the z-score is -0.321.

As for `COc1cccc(OCC(O)CN(CCO)Cc2ccccc2)c1` (stereo not drawn), the z-score was found to be 1.71.

`O=C(Cc1ccccc1)Nc1nc2ccccc2s1` came in with a z-score of 0.548.

Consider `CN1CCN(CC(=O)N/N=C/c2ccc(F)c(F)c2)CC1`, for which the z-score is -0.0626.

The compound `CCCCN(CC)C(=O)CSc1cc(=O)n(C)c2ccccc12` gave a z-score of 0.477.

Compound `Cn1ncc([N+](=O)[O-])c1C(=O)Nc1nccs1` yielded a z-score of 0.0986.

As for `O=c1c2c3c(sc2nc2n1CCCC2)CCCCC3`, the z-score was -0.277.

As to `CCCCOCCCNc1ncnc2c1[nH]c1ccccc12`, the z-score was -0.519.

`CCc1cccc2c(C=C(C#N)C#N)cn(CC(=O)N3CCCCCC3)c12`: the z-score was 0.134.

Take `Cc1c(CCO)c(=O)n(C)n1C(=O)c1ccc(Cl)cc1`: the z-score was -0.195.

For the compound `O=C(/C=C/c1ccc(Cl)cc1Cl)NCCSc1ccccc1`, the z-score came out at 0.133.

`CC(C)N(Cc1nc(-c2ccccc2)no1)C(=O)CSc1ccccc1` had a z-score of -2.54.

Compound `CN(Cc1ccccc1)c1ccc(S(=O)(=O)N2CCOCC2)cn1` returned a z-score of 0.115.

Compound `Fc1ccc(CSc2ccc3nnc(-c4cccs4)n3n2)cc1` showed a z-score of -0.335.

The compound `OCC(CO)(CO)NCc1ccc(-c2ccccc2)cc1` yielded a z-score of 0.599.

In turn, `CCCC(=O)Nc1ccc(C(=O)Nc2cc(C(F)(F)F)ccc2Cl)cc1` came in with a z-score of -0.386.

In turn, `CN(C)CCNc1nc(-c2ccco2)c2c(c1C#N)CC(C)(C)OC2` came in with a z-score of 0.397.

`COc1ccc(OC)c(/C=N/NC(=O)c2ccc(Cn3cc([N+](=O)[O-])cn3)o2)c1` registered a z-score of 0.103.

In turn, `CCOC(=O)C1CCCN(S(=O)(=O)c2cccc3cccnc23)C1` (stereo not drawn) gave a z-score of -0.188.

As to `CCCCCCC(=O)N/N=C/c1ccco1`, the z-score is -0.0628.

Turning to `CCOCC(=O)Nc1ccc(F)c(F)c1`, the z-score amounted to 0.128.

With `CCOc1ccc2nc(NC(=O)CN3CCN(c4ccccn4)CC3)sc2c1`, the z-score is 0.215.

In turn, `O=C(COC(=O)c1cc(=O)[nH]c(=O)[nH]1)NCc1ccccc1` returned a z-score of 0.00697.

`CCc1ccc2[nH]c(=O)c(CN(CCCO)C(=O)NCc3ccccc3)cc2c1` registered a z-score of 0.00958.

Consider `O=C(NCc1cn2ccccc2n1)c1ccco1`, for which the z-score was found to be 0.209.
